Test results published in PubChem BioAssay AID686979 (National Center for Advancing Translational Sciences (NCATS), 2013).
Screen size: about 420,000 compounds; about 50,000 (12%) were called active. Inconclusive results, whose numbers are uncertain, are shown with a selection of clear calls. Calls come from the whole dose curve; as a rule, active = well fitted inhibition curve with a large enough effect; inconclusive = small, poorly fitted or top-dose-only effect; inactive = flat fitted curve, though single readings scatter. No potency is given beside an inconclusive call; the fits are too rough.

test: qHTS for Inhibitors of human tyrosyl-DNA phosphodiesterase 1 (TDP1): qHTS in cells in presence of CPT; conditions: chicken DT40 Tdp1-/-;hTDP1 cells + 20 nM CPT, ATP luminescence, 48 h; activity change, negative = growth inhibition: at 46.2 µM (top of the series) unless noted; note: nearly all actives have a fitted effect of over 55% in size
Outline: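 Chicken DT40 Tdp1-/- cells stably complemented with human TDP1 were seeded at 400 cells/well in medium containing 20 nM camptothecin, exposed to pin-transferred compounds, and grown at 37 °C for at least 48 hr. Viability was read as ATP luminescence.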
% is set by controls: 0 for no effect and ±100 for the full control effect; potency is the fitted concentration of half-maximal effect; tags give direction and shape of the fitted curve.

Structure (SMILES) | Potency | activity change, negative = growth inhibition
CCN(CC)C(=O)c1sc(NC(=O)c2cccc([N+](=O)[O-])c2)c(C#N)c1C | active: 20.6 µM | –
Cc1ccc(Cn2c(C)c(C(=O)NCc3ccc(Cl)c(Cl)c3)sc2=O)cc1 | inconclusive [inhibitor, single point] | –
CC1=C(C(=O)N(C(C)C)C(C)C)CC(CC(=O)NCCCN(C)C)C(=O)N1Cc1ccc(C(C)(C)C)cc1 (stereo not given) | inconclusive [inhibitor, single point] | –
CC(C)C[C@H]1CN([C@@H](Cc2ccccc2)CN2CCC[C@H]2CN2C(=O)C(=O)NC[C@@H]2Cc2ccc(O)cc2)C(=O)C(=O)N1CC1CCCCCC1 | inconclusive [inhibitor, single point] | –
O=C(O)C1CSC2(c3ccc(F)cc3)CCC(=O)N12 (stereo not given) | inconclusive [inhibitor, single point] | –
CCCc1[nH]nc2c1C(CCC)C(C#N)=C(N)O2 (stereo not given) | – | inactive: -1.98%
Cc1cccnc1NC(=O)CCNC(=O)c1ccc(Cl)cc1 | – | inactive: -8.83%
O=C(Nc1cccc(Cl)c1)c1nc[nH]c1C(=O)Nc1ccccc1F | active: 4.11 µM | –
COCc1ccc(C(=O)N2CCc3c([nH]c4ccccc34)C2c2ccccn2)s1 (stereo not given) | inconclusive [inhibitor, single point] | –
O=C(NCc1cccs1)c1cc(-c2cccc(Cl)c2)on1 | inconclusive [inhibitor, partial curve] | –
Cc1ccc(-n2c(O)c(C=Nc3ccccc3-c3n[nH]c(=S)[nH]c3=O)c3ccccc3c2=O)cc1C | inconclusive [inhibitor, single point] | –
N#C/C(=C/c1cc(Br)cs1)C(=O)NCC1CCCO1 (stereo not given) | – | inactive: -14.2%
CCn1cc([N+](=O)[O-])c(C(=O)N2N=C(c3ccc(Cl)c(Cl)c3)CC2c2ccccc2O)n1 (stereo not given) | inconclusive [inhibitor, single point] | –
COc1cc(CC(=O)OCC(=O)c2ccc3c(c2)OCCO3)cc(OC)c1OC | active: 1.3 µM | –
COCCNC(=O)CN(C(=O)CCC(=O)Nc1ccccn1)c1ccc(C)c(C)c1 | – | inactive: 31.4%
Cc1csc2nc(CNS(=O)(=O)c3ccc(-c4ccccc4)cc3)cn12 | inconclusive [inhibitor, single point] | –
Cc1nc2ccccc2c(=O)n1NC(=O)c1ccccc1Br | – | inactive: 12%
Oc1cc2c(cc1CN1CCc3ccccc3C1)OCO2 | inconclusive [inhibitor, single point] | –
CCCCN(C)CCNC(=O)c1nn(-c2ccc(OC)c(Cl)c2)c(=O)c2c1c1ccccc1n2C | inconclusive [inhibitor, single point] | –
NC(=O)CSc1cn(Cc2cccc(F)c2)c2ccccc12 | active: 13 µM | –
Cc1nn(-c2ccccc2)c2sc(C(=O)Nc3ccc(Cl)cc3Cl)cc12 | inconclusive [inhibitor, single point] | –
OC(CNCC1CCCO1)Cn1c2ccc(Br)cc2c2cc(Br)ccc21 (stereo not given) | inconclusive [inhibitor, single point] | –
COC(=O)[C@H](CC(C)C)NC(=O)NCc1ccc(Cl)cc1 | – | inactive: 16%

Structure (SMILES) | Potency | activity change, negative = growth inhibition
COC(=O)C[C@H]1C=C[C@@H](NC(=O)c2ccncc2)[C@@H](CO)O1 | – | inactive: 8%
CCOc1ccc(Cl)cc1CNCCNCCO | inconclusive [inhibitor, single point] | –
CCOc1cc(N2CCOCC2)c(OCC)cc1NC(=O)c1nc2nc(C)cc(C)n2n1 | inconclusive [inhibitor, single point] | –
CC(=O)Nc1ccc(S(=O)(=O)NCCCc2ccccc2)cc1 | inconclusive [inhibitor, single point] | –
Cn1nc(C(=O)NNC(=O)COc2ccccc2)c2ccccc2c1=O | inconclusive [inhibitor, single point] | –
CCCCOCCCNC(=O)C[C@@H]1C[C@@]2(C(=O)OCC)CCC=C2N(CCC2=CCCCC2)C1=O | inconclusive [inhibitor, single point] | –
COc1ccc(C(=O)Nc2nnc(SCc3cc(=O)c4cc(C)ccc4[nH]3)s2)cc1OC | inconclusive [inhibitor, single point] | –
O=C(Cc1ccccc1)Nc1ccccc1N1CCCC1 | inconclusive [inhibitor, single point] | –
c1ccc(CCc2ccccc2-c2nc(-c3ccccn3)no2)cc1 | inconclusive [inhibitor, single point] | –
CCCC(=O)N(Cc1cc2cc(OC)ccc2[nH]c1=O)c1ccc(OC)cc1 | inconclusive [inhibitor, partial curve, poor fit] | –
OC(CN1C2=NCCN2c2ccccc21)c1ccc2c(c1)OCO2 (stereo not given) | inconclusive [inhibitor, single point] | –
COc1ccc(CNC(=O)Cn2c(=O)c3cccn3c3cccnc32)cc1 | – | inactive: -4.87%
CC1(C)CC(=O)N(c2ccc(Cl)cc2Cl)C(=O)C1 | – | inactive: -0.332%
Cc1ccc(S(=O)(=O)c2cccc(S(=O)(=O)N3CCCC3)c2)cc1S(=O)(=O)N1CCCC1 | active: 20.6 µM | –
Cc1ccc2c(=O)c(C(=O)c3ccc(F)cc3)cn(CC(=O)NCc3ccco3)c2n1 | inconclusive [inhibitor, partial curve] | –
COc1ccc(OC)c(C(c2nnnn2CC2CCCO2)N2CCN(C)CC2)c1 (stereo not given) | – | inactive: -1.85%
Brc1ccccc1OCCOc1cccc2cccnc12 | – | inactive: -1.1%
Cc1cc2cc(CN(Cc3cccs3)Cc3nnnn3CC3CCCO3)c(=O)[nH]c2cc1C (stereo not given) | inconclusive [inhibitor, single point] | –
CCCC(C(=O)NC1CCCC1)N(Cc1ccc2c(c1)OCO2)C(=O)c1snc(C(N)=O)c1N (stereo not given) | inconclusive [inhibitor, single point] | –
CCOC(=O)C1(Cc2ccccc2)CCCN(C(=O)COc2ccccc2OC)C1 (stereo not given) | active: 23.1 µM | –
Nn1c(SCc2ccccc2)nc2ccccc21 | – | inactive: 1.84%
COC(=O)C1=C(CS(=O)(=O)c2ccc(C)cc2C)NC(=O)NC1c1ccc(C)cc1 (stereo not given) | – | inactive: -0.974%
